Source: a collection of fitness landscapes (doi:10.1016/j.celrep.2020.107928)
In all, about 81,000 sequences were measured (“one-hybrid fitness for binding NBS DNA”: median about -0.1, highest 2% from about 0.36 on). The list shows a part of the results.

B1: Caulobacter ParB omega fusion; a variant is named by its letters at X, in order, B8GW30 (parent)
chain: MESVVVGEPGMSEGRRGLGRGLSALLGEVDAAPAQAPGEQLGGSREAPIEILQRNPDQPRRTFREEDLEDLSNSIREKGVLQPILVRPSPDTAGEYQIVAGERAWRAAQRAGLKTVPIMVRELDDLAVLEIGIIENVQRADLNVLEEALSYKVLMEKFERTQENIAQTIGKSXSHVANXMRLLXLPDEVQSYLVSGELTAXHARAIAAAADPVALAKQIIEGGLSVRETEALARKAPNLSAGKSKGGRPPRVKDTDTQALESDLSSVLGLDVSIDHRGSTGTLTITYATLEQLDDLCNRLTRGI

Variants of: B1
Assay: one-hybrid fitness for binding NBS DNA (the Noc-binding site; scaled: cognate 1, non-cognate 0); higher = stronger binding
Conditions: with NBS DNA site
How it was run: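 In E. coli USO, a HIS3 reporter with its site placed 19 bp from the promoter was used to select Caulobacter ParB variants randomised at four specificity codons. Growth lasted 48 hours at 37°C on histidine-free M9 containing 0.1 mM IPTG and 5 mM 3-AT. Fitness was taken as the log change in variant-to-wild-type read ratio from Illumina sequencing of pre- and post-selection plasmids, rescaled between the non-cognate and cognate sites.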

| Variant | one-hybrid fitness for binding NBS DNA |
| --- | --- |
| TCTA | ≤ 0.2 |
| NAVS | ≤ 0.2 |
| RLYI | ≤ 0.2 |
| CFMS | ≤ 0.2 |
| RLTY | ≤ 0.2 |
| YIRW | ≤ 0.2 |
| EDST | ≤ 0.2 |
| YPGR | ≤ 0.2 |
| ETHH | ≤ 0.2 |
| PRVW | ≤ 0.2 |
| EILP | ≤ 0.2 |
| RFIT | ≤ 0.2 |
| RDAP | ≤ 0.2 |
| PMPY | ≤ 0.2 |
| ESLK | ≤ 0.2 |
| QHVR | 0.379 |
| RDQQ | ≤ 0.2 |
| VTKV | ≤ 0.2 |
| TVTK | ≤ 0.2 |
| QFPG | ≤ 0.2 |
| HSSI | ≤ 0.2 |
| QRLG | 0.298 |
| VGTT | ≤ 0.2 |
| CGAI | ≤ 0.2 |
| WLQG | ≤ 0.2 |

| Variant | one-hybrid fitness for binding NBS DNA |
| --- | --- |
| WQLK | ≤ 0.2 |
| FRRV | ≤ 0.2 |
| KPHQ | ≤ 0.2 |
| TSHP | ≤ 0.2 |
| EPGR | ≤ 0.2 |
| CPRY | ≤ 0.2 |
| IMVT | ≤ 0.2 |
| MRVV | ≤ 0.2 |
| VRYV | ≤ 0.2 |
| NRAA | ≤ 0.2 |
| ESKF | ≤ 0.2 |
| YQTR | ≤ 0.2 |
| RWSS | ≤ 0.2 |
| RESK | ≤ 0.2 |
| CEIK | ≤ 0.2 |
| NSTG | ≤ 0.2 |
| AQPA | ≤ 0.2 |
| EHTS | ≤ 0.2 |
| VRKW | ≤ 0.2 |
| GFNT | ≤ 0.2 |
| WGNR | ≤ 0.2 |
| TLRH | ≤ 0.2 |
| HTQF | ≤ 0.2 |
| FCNG | ≤ 0.2 |
| PAAE | ≤ 0.2 |

| Variant | one-hybrid fitness for binding NBS DNA |
| --- | --- |
| ILTP | ≤ 0.2 |
| WLRG | ≤ 0.2 |
| GDPS | ≤ 0.2 |
| VRGW | ≤ 0.2 |
| YMPN | ≤ 0.2 |
| IPVR | ≤ 0.2 |
| CWLY | ≤ 0.2 |
| FTTI | ≤ 0.2 |
| QMYS | 0.405 |
| WSSF | ≤ 0.2 |
| PPTP | ≤ 0.2 |
| MIDS | ≤ 0.2 |
| LKPH | ≤ 0.2 |
| FAKR | 0.245 |
| AEEG | ≤ 0.2 |
| CADR | ≤ 0.2 |
| PSDW | ≤ 0.2 |
| THSW | ≤ 0.2 |
| IVKE | ≤ 0.2 |
| SLNK | ≤ 0.2 |
| HSHI | ≤ 0.2 |
| DVLN | ≤ 0.2 |
| SQPA | ≤ 0.2 |
| PPKA | ≤ 0.2 |
| AHKR | 0.201 |

| Variant | one-hybrid fitness for binding NBS DNA |
| --- | --- |
| KWVS | ≤ 0.2 |
| PVEL | ≤ 0.2 |
| VRSF | ≤ 0.2 |
| WIWS | ≤ 0.2 |
| SAGT | ≤ 0.2 |
| AVCG | ≤ 0.2 |
| CEPT | ≤ 0.2 |
| THLW | ≤ 0.2 |
| GSLG | ≤ 0.2 |
| GESS | ≤ 0.2 |
| QHYG | ≤ 0.2 |
| LGHW | ≤ 0.2 |
| LFDT | ≤ 0.2 |
| MMRE | ≤ 0.2 |
| RYKD | ≤ 0.2 |
| TAGF | ≤ 0.2 |
| CQDG | ≤ 0.2 |
| HNVR | ≤ 0.2 |
| RRLL | ≤ 0.2 |
| GWLY | ≤ 0.2 |
| RYGS | 0.426 |
| GPSD | ≤ 0.2 |
